Measurements reported in PubChem BioAssay AID488969 (Vanderbilt High Throughput Screening Facility, 2010).
Over roughly 110,000 compounds, “z-score” has its median near -0.1; the highest 2% begin near 2. This is one part of the list. Activity calls are given as the source filed them.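 The calls were made as follows: active = z-score in the third read window above 3 or below -3; inactive = the rest.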

What follows are molecules tested against Metabotropic glutamate receptor 8 (Rattus norvegicus) (UniProt P70579) (assay: rat mGluR8 modulators via GIRK flux, primary screen, cell-based, thallium flux, HTS (AID 488969)). Details: HEK293 rat mGluR8, GIRK (G protein-gated inwardly rectifying potassium channel) thallium flux, FluoZin2; at 10 µM; stronger effect = higher value; submaximal glutamate (EC20) added with thallium.
Sequence of UniProt P70579 (P70579 whole entry, looked up): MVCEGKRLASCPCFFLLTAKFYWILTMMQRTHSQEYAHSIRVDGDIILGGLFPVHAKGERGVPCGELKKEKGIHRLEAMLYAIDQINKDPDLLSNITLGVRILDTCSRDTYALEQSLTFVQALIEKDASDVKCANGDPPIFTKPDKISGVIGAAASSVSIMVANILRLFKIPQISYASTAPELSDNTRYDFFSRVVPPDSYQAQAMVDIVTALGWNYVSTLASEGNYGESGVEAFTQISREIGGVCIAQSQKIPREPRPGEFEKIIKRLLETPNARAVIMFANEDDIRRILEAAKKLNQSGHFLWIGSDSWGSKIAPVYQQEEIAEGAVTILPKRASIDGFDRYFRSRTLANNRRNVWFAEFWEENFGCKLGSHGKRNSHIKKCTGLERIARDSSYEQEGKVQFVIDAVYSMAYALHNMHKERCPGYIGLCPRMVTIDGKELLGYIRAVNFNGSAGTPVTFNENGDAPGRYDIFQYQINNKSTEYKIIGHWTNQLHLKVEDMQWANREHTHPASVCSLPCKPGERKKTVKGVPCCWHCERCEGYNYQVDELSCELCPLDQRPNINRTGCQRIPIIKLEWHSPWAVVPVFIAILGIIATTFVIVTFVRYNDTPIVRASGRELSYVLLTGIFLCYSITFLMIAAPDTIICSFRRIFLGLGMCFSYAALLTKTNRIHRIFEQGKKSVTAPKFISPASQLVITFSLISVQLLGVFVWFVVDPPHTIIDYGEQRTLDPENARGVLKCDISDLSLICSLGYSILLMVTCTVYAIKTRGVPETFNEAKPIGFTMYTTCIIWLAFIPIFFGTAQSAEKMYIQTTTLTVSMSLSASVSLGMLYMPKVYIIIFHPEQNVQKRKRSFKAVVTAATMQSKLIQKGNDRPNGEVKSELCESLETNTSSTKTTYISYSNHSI

Row | Structure (SMILES) | z-score
1 | C=CCn1cc(C(=O)NCC2CCCO2)c(=O)c2cc(S(=O)(=O)N3CCCCCC3)ccc21 (stereo not drawn) | -0.544
2 | COc1ccc(-n2cnnc2SCC(=O)NCc2cccs2)cc1 | -0.126
3 | COc1ccc(C2C(C(=O)C(C)(C)C)=C(O)C(=O)N2Cc2ccccc2)cc1 (stereo not drawn) | -0.0256
4 | Cc1ccc(-c2nc(CS(=O)CC(=O)NC3CCC(C)CC3)c(C)o2)cc1 (stereo not drawn) | -0.41
5 | COc1ccc(C2(C(=O)NCc3ccco3)CCCC2)cc1OC | 0.0332
6 | CCCCN(CCCC)CCCNC(=O)C12CN(Cc3ccccc3)CC1C(c1cccc([N+](=O)[O-])c1)=NO2 (stereo not drawn) | 1.81
7 | CC/C(CC(C)(C)c1ccccc1)=N\O | 0.387
8 | CC(C)(C)c1ccc(SCC(N)=O)cc1 | active: -4.39
9 | COC(=O)CCCNS(=O)(=O)c1ccc2ccccc2c1 | 0.264
10 | Cc1nc(NC(=S)NC(=O)COc2ccc(Cl)cc2)ccc1Br | 0.641
11 | COc1c(F)c(F)c(C(=O)O)c(Nc2ccccc2)c1F | -0.109
12 | CC(C)(C)c1ccc(C(=O)CSc2ncn[nH]2)cc1 | 0.169
13 | Cc1nn2c(Nc3ccc(F)cc3)c3c(nc2c1-c1ccccc1)CCC3 | 0.0107
14 | O=C(O)c1cccc(NS(=O)(=O)c2cccc3cccnc23)c1 | -0.0996
15 | CCOc1ccc(-c2nnc3ccc(SCC(=O)Nc4nc5ccc(C)cc5s4)nn23)cc1 | -0.458
16 | C=CCn1c(SC2CCOC2=O)nc2sc(C)c(C)c2c1=O (stereo not drawn) | -0.995
17 | CC(NS(=O)(=O)c1ccc(Cl)cc1)C(=O)NCc1ccco1 (stereo not drawn) | 0.0263
18 | O=C(CC(NC(=O)C(F)(F)F)c1ccccc1)Nc1nnc(CCc2ccccc2)s1 (stereo not drawn) | 0.45
19 | O=C(Nc1ccc2c(c1)OCCO2)C1CCCN(S(=O)(=O)c2cccc3nsnc23)C1 (stereo not drawn) | 0.545
20 | CC(=O)N/C(=C\c1ccccc1)C(=O)OCC(=O)N(C)C1CCCCC1 | -0.162
21 | O=C(Nc1ncc2c(n1)-c1ccccc1CC2)c1ccc(F)cc1 | -0.425
22 | COc1ccccc1/C=C1\S/C(=N/NC(=O)c2cccc(Br)c2)NC1=O | -0.812
23 | CC1Cc2ccccc2N1C(=O)CSc1nnc2c(n1)[nH]c1ccc(F)cc12 (stereo not drawn) | -0.327

Row | Structure (SMILES) | z-score
24 | O=S(=O)(NCc1cccnc1)c1ccccc1 | -0.00631
25 | CCc1ccc(C(=O)CN2C(=O)NC(C)(CCc3ccccc3)C2=O)cc1 (stereo not drawn) | -0.208
26 | Cc1nn(Cc2ccccc2)c2c1C(c1ccccc1)C(C#N)=C(N)O2 (stereo not drawn) | -0.684
27 | O=C(/C=C/c1ccccc1)c1cc(Br)ccc(=O)c1O | active: 14
28 | COCCNc1nnc(SC(C)C(=O)Nc2ccc(-c3nc4ccc(C)cc4s3)cc2)s1 (stereo not drawn) | -0.474
29 | CCCCN(CCCC)C(=S)NC(=O)c1ccccc1Cl | -0.755
30 | CCOC(=O)C(NC(C)=O)C(=O)O (stereo not drawn) | -0.0696
31 | COc1ccc(C(=O)C(CCC(CNC(C)(C)C)C(=O)c2ccc(OC)cc2)CNC(C)(C)C)cc1 (stereo not drawn) | 0.539
32 | Cc1ccc(S(=O)(=O)n2ccc(-c3cccc(OCc4c(F)cccc4Cl)c3)n2)cc1 | -0.115
33 | c1ccc(CCNc2ncnc3c2cnn3-c2ccccc2)cc1 | -1.25
34 | COc1ccc(CCN2CC34C=CC(O3)C(C(=O)NCc3ccccc3Cl)C4C2=O)cc1OC (stereo not drawn) | 0.725
35 | CCCNc1nc2c(c(=O)[nH]c(=O)n2C)n1Cc1ccc(F)cc1 | -0.0935
36 | COC(=O)c1ccc(/C=N/NC(=O)c2cccc(F)c2)cc1 | -0.403
37 | CC(O)(CS(=O)(=O)Cc1ccccc1)C(=O)Nc1cccc(C(F)(F)F)c1 (stereo not drawn) | -0.0049
38 | Cc1ccc(S(=O)(=O)N2CCC(C(=O)N[C@H](C(=O)NCC3CCCO3)C(C)C)CC2)cc1 (stereo partly drawn) | -0.153
39 | CC(Sc1nc(-c2ccccc2)cc(C(F)(F)F)n1)C(=O)Nc1sc2c(c1C(N)=O)CCC2 (stereo not drawn) | -0.359
40 | COC(=O)c1ccc2nc(NC(=O)COC(=O)CSc3nc(C)cc(C)n3)sc2c1 | -0.153
41 | Cc1nnc(NC(=O)c2ccccc2C(=O)O)s1 | -0.105
42 | CCC(C)NCCCOc1cc(Cl)ccc1Cl (stereo not drawn) | 0.511
43 | Cc1ccc(C)c(-c2nn(-c3cc(N4CCN(CCO)CC4)ccc3[N+](=O)[O-])c(=O)c3ccccc23)c1 | -0.175
44 | CC1CC2(CC(C)(C(=O)CSc3nc4ccccc4s3)OC2=O)C(=O)O1 (stereo not drawn) | 0.537
45 | O=c1c2ccccc2nc(N/N=C/c2c(O)ccc3ccccc23)n1O | 0.298
46 | COc1cc(C2C3C(=O)N(c4ccccc4)C(=O)C3ON2c2ccccc2)cc(OC)c1OC (stereo not drawn) | -0.0506

Row | Structure (SMILES) | z-score
47 | CC(=O)c1ccc(N(C(=O)Cn2nnc3ccccc32)C(C(=O)NCc2ccccc2)c2ccccn2)cc1 (stereo not drawn) | 0.131
48 | Cc1ccc(S(=O)(=O)N(C)c2ccc(NS(C)(=O)=O)cc2)cc1 | -0.379
49 | Cc1cc(Cl)cc(C)c1OCCCCN1CCOCC1 | 0.224
50 | C=CCNC(=O)COc1cc(C)ccc1C | -0.198
51 | CN(C)S(=O)(=O)N1CCN(C(=O)N(c2ccccc2)c2ccccc2)CC1 | -0.395
52 | O=C(CC(=O)NC1CCCCC1)N/N=C/c1cccc2ccccc12 | -0.294
53 | NNC(=O)CNC(=O)c1ccccc1F | -0.108
54 | CCOC(=O)C1=C(C)N(C)C(C)=C(C(=O)OCC)C1c1ccccn1 | 0.692
55 | Cc1cccc(C)c1NC(=O)C(NC=O)c1ccc(Cl)cc1 (stereo not drawn) | -0.0871
56 | Cc1ccc(S(=O)(=O)N(C)C)cc1-n1c(SCC(=O)Nc2ccccc2)nc2ccccc2c1=O | 0.0533
57 | COC(=O)c1ccc(C2NC(=S)N(c3ccccc3)C(C)=C2C(=O)Nc2ccccc2OC)cc1 (stereo not drawn) | -0.483
58 | CCn1cc(C(=O)NCc2ccco2)c(=O)c2cc(S(=O)(=O)N3CC(C)CC(C)C3)ccc21 (stereo not drawn) | -0.0472
59 | COc1cccc(-c2nc(CS(=O)(=O)CC(=O)NC3CCCc4ccccc43)c(C)o2)c1 (stereo not drawn) | 0.0233
60 | COCC(=O)NC1CCN(CC(=O)Nc2ccc(OC)cc2[N+](=O)[O-])CC1 | -0.121
61 | O=C(N/N=C/c1ccco1)C1CC1 | 0.84
62 | Cc1cc(C)c2nc3s/c(=C/c4ccccc4)c(=O)n3c2c1 | -0.0939
63 | O=C1CCCC2=C1C(O)(C(F)(F)F)C(=O)N2Cc1ccccc1 (stereo not drawn) | 0.265
64 | CCC(C)(C(=O)NC1CCCC1)N(Cc1cccs1)C(C)=O (stereo not drawn) | -0.228
65 | COc1ccc(CCNCc2csc3nc4ccccc4n23)cc1OC | -0.105
66 | CC(C)(C)c1nnc(N/N=C/c2ccccc2)n(N)c1=O | 2.74
67 | C=CCn1c(C)cc(C(=O)CSc2nnc(Cc3ccccc3)o2)c1C | -0.617
68 | Cn1c(Cl)c(C(=O)Nc2ccccc2)c2ccccc21 | 0.181
